Test results published in the supplement of paper PMC3334620.
In all, about 33,000 sequences were measured (“E-score (-0.5 to 0.5)”: median about -0.021, highest 2% from about 0.32 on). The list shows a part of the results.

Target: T1, Zap1 (UniProt P47043)
T1 sequence: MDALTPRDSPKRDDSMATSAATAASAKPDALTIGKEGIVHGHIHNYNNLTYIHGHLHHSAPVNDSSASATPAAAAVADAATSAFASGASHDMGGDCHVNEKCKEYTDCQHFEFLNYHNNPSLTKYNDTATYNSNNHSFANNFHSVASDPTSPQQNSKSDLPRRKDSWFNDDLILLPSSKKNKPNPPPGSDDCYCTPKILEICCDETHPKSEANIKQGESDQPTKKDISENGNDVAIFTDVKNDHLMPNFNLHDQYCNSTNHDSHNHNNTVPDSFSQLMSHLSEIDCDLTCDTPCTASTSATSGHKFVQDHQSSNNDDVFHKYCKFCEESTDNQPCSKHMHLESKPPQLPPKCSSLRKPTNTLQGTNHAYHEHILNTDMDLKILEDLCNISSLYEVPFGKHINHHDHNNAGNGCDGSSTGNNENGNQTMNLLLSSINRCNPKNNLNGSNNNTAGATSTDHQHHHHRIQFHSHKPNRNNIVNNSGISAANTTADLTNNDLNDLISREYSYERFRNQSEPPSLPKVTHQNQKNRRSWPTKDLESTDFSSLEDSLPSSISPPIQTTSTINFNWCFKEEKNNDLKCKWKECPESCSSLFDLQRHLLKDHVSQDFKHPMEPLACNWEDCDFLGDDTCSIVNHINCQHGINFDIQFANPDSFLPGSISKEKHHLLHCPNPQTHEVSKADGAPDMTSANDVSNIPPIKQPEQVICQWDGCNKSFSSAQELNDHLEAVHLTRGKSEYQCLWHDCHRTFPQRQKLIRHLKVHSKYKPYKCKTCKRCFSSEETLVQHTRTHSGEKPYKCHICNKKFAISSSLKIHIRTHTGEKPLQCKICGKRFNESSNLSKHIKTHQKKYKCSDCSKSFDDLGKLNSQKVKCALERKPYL
Test: PBM E-score (8-mer binding enrichment) (E-score (-0.5 to 0.5)); higher = stronger / more preferred TF binding; most listed sequences are background and not binding sites
Details: protein concentration: 200 nM; construct: GST-full length
How it was run: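 The E-score, a modified Wilcoxon-Mann-Whitney statistic, was computed by the Universal PBM Analysis Suite for every ungapped eight-base word pooled with its reverse complement. Scans behind it were normalised with masliner after bound GST-tagged yeast transcription factors were detected with fluorescent anti-GST. The proteins, at about 100-200 nM, had been applied to universal all-10-mer Agilent arrays made double-stranded by primer extension.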

| Sequence | PBM E-score |
| --- | --- |
| CCGGCATC | -0.173 |
| AAGCTGAC | 0.0475 |
| GAGATTGC | -0.209 |
| AGCGTAGC | -0.142 |
| GAGTATTA | 0.0425 |
| AATAGCGG | -0.0293 |
| GCAGAGTA | -0.0931 |
| CCTTCGTC | -0.158 |
| CTCCGCCC | -0.172 |
| ACCGACCC | 0.00842 |
| ACCGCAGT | 0.253 |
| GAGCCCGA | -0.112 |
| AACCACTG | 0.241 |
| AAAAGGAC | 0.231 |
| AAATGCCG | -0.0215 |
| TCGGAGCA | -0.196 |
| CCGAACCA | 0.0466 |
| ACCTGAGA | 0.0986 |
| AGCCCGCA | -0.29 |
| AATGATTC | 0.0439 |
| CCCTCTAC | -0.0957 |
| GCGATTCC | -0.0435 |

| Sequence | PBM E-score |
| --- | --- |
| ACATACCT | 0.118 |
| GTACTGAC | 0.0986 |
| CTTACAAG | 0.00898 |
| AAATTTGA | 0.154 |
| CCCCGTTA | -0.0929 |
| AACGCTCT | -0.221 |
| AGGAGGTC | -0.201 |
| CAGCCCAG | -0.177 |
| CGATCTTC | -0.113 |
| AACTACGG | 0.095 |
| TATTCCCA | 0.124 |
| CAGAGTCA | -0.215 |
| AGATGGTC | -0.102 |
| GGCCCTAA | 0.186 |
| CGGATCCG | -0.268 |
| TATAGGGA | -0.102 |
| CACCCGCG | 0.15 |
| CGGGCAGC | -0.101 |
| AGCCGTTA | 0.0356 |
| GCGGGTCA | 0.367 |
| GCCGCGGA | 0.0769 |
| CTAGTCAG | -0.158 |

| Sequence | PBM E-score |
| --- | --- |
| GAGACTAA | -0.0596 |
| AAGTCTCA | -0.2 |
| AAAGATAG | -0.0702 |
| CTAATGAA | 0.116 |
| AACGCATC | -0.0162 |
| AGTTAAGC | -0.0921 |
| ACTAACAC | 0.0136 |
| CGCGAAAA | 0.127 |
| CTTTTGAA | 0.00349 |
| CCTAATCG | 0.113 |
| CTTGGAGA | -0.0909 |
| ATAATACG | 0.147 |
| AACGGAAA | 0.177 |
| CAGGCCCG | -0.211 |
| ACATACTG | -0.107 |
| CACTCACG | -0.0478 |
| CGGTGCTC | 0.123 |
| CTTCTCCC | -0.213 |
| AGTCTCGA | -0.109 |
| GTCCAGCA | -0.182 |
| CTGATACC | 0.0845 |
| GACTCATA | -0.196 |

| Sequence | PBM E-score |
| --- | --- |
| AGAAATCG | -0.118 |
| TCGCGTAA | 0.108 |
| CGGCGCTC | -0.0815 |
| GGACCCAC | 0.119 |
| CACGAGCG | -0.16 |
| GGCACAAA | -0.0555 |
| GACAAAGA | 0.0487 |
| CAGTGTAA | 0.183 |
| CACTCCTC | -0.16 |
| CTACGACC | -0.0672 |
| AGCTCCGG | -0.0484 |
| AGGAGCTC | -0.16 |
| AACCATTA | 0.365 |
| CCGGTCTA | -0.257 |
| CAGGTCTA | -0.0782 |
| GAGGATGA | -0.01 |
| AGACCATC | -0.138 |
| ACGGAAGA | 0.0265 |
| ATATTATA | 0.145 |
| ATACACCG | -0.0908 |
